Measured values as given in article PMC12820563, “FoxP3 forms a head-to-head dimer in vivo and stabilizes its multimerization on adjacent microsatellites”.
This is one part of the list.

Target: T1, MBP-FoxP1dN (Mus musculus, UniProt P58462 326-579)
T1 sequence: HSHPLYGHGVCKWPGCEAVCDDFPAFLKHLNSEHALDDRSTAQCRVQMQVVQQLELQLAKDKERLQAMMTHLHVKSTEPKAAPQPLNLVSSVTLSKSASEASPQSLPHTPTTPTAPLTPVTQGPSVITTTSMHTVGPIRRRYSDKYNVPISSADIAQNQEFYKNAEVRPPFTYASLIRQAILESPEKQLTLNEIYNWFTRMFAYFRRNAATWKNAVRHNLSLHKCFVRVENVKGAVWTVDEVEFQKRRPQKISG
Assay: PD-seq (MBP pull-down with sequencing); 20 mM Tris-HCl pH 7.5, 100 mM NaCl, 1.5 mM MgCl2, 0.4 uM protein, 0.1 uM dsDNA library, 30 min, room temperature, amylose pull-down; high values mean tight binding
Conditions: protein: recombinant; tags: His6-MBP; chain copies: 2; dsDNA, one strand shown
How it was run: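 The N-terminus-lacking fragment of mouse FoxP3 or FoxP1 carried a His6-MBP tag and was expressed in E. coli. At 0.4 µM it was incubated with 0.1 µM Klenow-filled degenerate double-stranded DNA library for 30 min at room temperature in Tris pH 7.5 buffer with NaCl and MgCl2, and complexes were caught on amylose resin, washed three times, released with proteinase K, PCR-barcoded and Illumina-sequenced. Binding is reads-per-million enrichment of pull-down over input with replicates pooled.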

Sequence	binding signal
GATGATTGTTCTCCCAGCTGATGAATTTTAGGGTTCGAGTAAACAAATTTTCCTAATCTTTCTGTTCAAGCGCCATCTAC	0.861 RPM ratio (pull-down/input)
GATGATTGTTCTCCCAGCTGATGAATTTGAGTAATCGAGTAAACAAATTTTCCTAATCTTTCTGTTCAAGCGCCATCTAC	1.34 RPM ratio (pull-down/input)
GATGATTGTTCTCCCAGCTGATGAATTGGACGGATCGAGTAAACAAATTTTCCTAATCTTTCTGTTCAAGCGCCATCTAC	0.794 RPM ratio (pull-down/input)
GATGATTGTTCTCCCAGCTGATGAATTACATGTCTCGAGTAAACAAATTTTCCTAATCTTTCTGTTCAAGCGCCATCTAC	1.11 RPM ratio (pull-down/input)
GATGATTGTTCTCCCAGCTGATGAATTCGGGAAATCGAGTAAACAAATTTTCCTAATCTTTCTGTTCAAGCGCCATCTAC	0.935 RPM ratio (pull-down/input)
GATGATTGTTCTCCCAGCTGATGAATTAGATTCATCGAGTAAACAAATTTTCCTAATCTTTCTGTTCAAGCGCCATCTAC	0.949 RPM ratio (pull-down/input)
GATGATTGTTCTCCCAGCTGATGAATTGATGGGTTCGAGTAAACAAATTTTCCTAATCTTTCTGTTCAAGCGCCATCTAC	0.958 RPM ratio (pull-down/input)
GATGATTGTTCTCCCAGCTGATGAATTTTACGTATCGAGTAAACAAATTTTCCTAATCTTTCTGTTCAAGCGCCATCTAC	0.962 RPM ratio (pull-down/input)
GATGATTGTTCTCCCAGCTGATGAATTTTTCATATCGAGTAAACAAATTTTCCTAATCTTTCTGTTCAAGCGCCATCTAC	0.989 RPM ratio (pull-down/input)
GATGATTGTTCTCCCAGCTGATGAATTTGTTCAATCGAGTAAACAAATTTTCCTAATCTTTCTGTTCAAGCGCCATCTAC	1.17 RPM ratio (pull-down/input)
GATGATTGTTCTCCCAGCTGATGAATTACCCCTATCGAGTAAACAAATTTTCCTAATCTTTCTGTTCAAGCGCCATCTAC	0.969 RPM ratio (pull-down/input)
GATGATTGTTCTCCCAGCTGATGAATTGTAACCTTCGAGTAAACAAATTTTCCTAATCTTTCTGTTCAAGCGCCATCTAC	1.01 RPM ratio (pull-down/input)
GATGATTGTTCTCCCAGCTGATGAATTATTGTCGTCGAGTAAACAAATTTTCCTAATCTTTCTGTTCAAGCGCCATCTAC	1.56 RPM ratio (pull-down/input)
GATGATTGTTCTCCCAGCTGATGAATTTGCGGGCTCGAGTAAACAAATTTTCCTAATCTTTCTGTTCAAGCGCCATCTAC	0.839 RPM ratio (pull-down/input)
GATGATTGTTCTCCCAGCTGATGAATTGGCATGTTCGAGTAAACAAATTTTCCTAATCTTTCTGTTCAAGCGCCATCTAC	0.944 RPM ratio (pull-down/input)
GATGATTGTTCTCCCAGCTGATGAATTGACACTCTCGAGTAAACAAATTTTCCTAATCTTTCTGTTCAAGCGCCATCTAC	1.16 RPM ratio (pull-down/input)
GATGATTGTTCTCCCAGCTGATGAATTAGATTCGTCGAGTAAACAAATTTTCCTAATCTTTCTGTTCAAGCGCCATCTAC	0.892 RPM ratio (pull-down/input)
GATGATTGTTCTCCCAGCTGATGAATTAATATAATCGAGTAAACAAATTTTCCTAATCTTTCTGTTCAAGCGCCATCTAC	1.26 RPM ratio (pull-down/input)
GATGATTGTTCTCCCAGCTGATGAATTGATTTCGTCGAGTAAACAAATTTTCCTAATCTTTCTGTTCAAGCGCCATCTAC	1.11 RPM ratio (pull-down/input)
GATGATTGTTCTCCCAGCTGATGAATTCCCCTGCTCGAGTAAACAAATTTTCCTAATCTTTCTGTTCAAGCGCCATCTAC	0.784 RPM ratio (pull-down/input)
GATGATTGTTCTCCCAGCTGATGAATTATCACCTTCGAGTAAACAAATTTTCCTAATCTTTCTGTTCAAGCGCCATCTAC	1.03 RPM ratio (pull-down/input)

Sequence	binding signal
GATGATTGTTCTCCCAGCTGATGAATTCTTTACATCGAGTAAACAAATTTTCCTAATCTTTCTGTTCAAGCGCCATCTAC	1.07 RPM ratio (pull-down/input)
GATGATTGTTCTCCCAGCTGATGAATTACCCTATTCGAGTAAACAAATTTTCCTAATCTTTCTGTTCAAGCGCCATCTAC	1 RPM ratio (pull-down/input)
GATGATTGTTCTCCCAGCTGATGAATTCCGGGAATCGAGTAAACAAATTTTCCTAATCTTTCTGTTCAAGCGCCATCTAC	0.923 RPM ratio (pull-down/input)
GATGATTGTTCTCCCAGCTGATGAATTCGTCGCGTCGAGTAAACAAATTTTCCTAATCTTTCTGTTCAAGCGCCATCTAC	0.904 RPM ratio (pull-down/input)
GATGATTGTTCTCCCAGCTGATGAATTGCCCTGCTCGAGTAAACAAATTTTCCTAATCTTTCTGTTCAAGCGCCATCTAC	0.823 RPM ratio (pull-down/input)
GATGATTGTTCTCCCAGCTGATGAATTAGCAGAATCGAGTAAACAAATTTTCCTAATCTTTCTGTTCAAGCGCCATCTAC	0.993 RPM ratio (pull-down/input)
GATGATTGTTCTCCCAGCTGATGAATTGTATGGCTCGAGTAAACAAATTTTCCTAATCTTTCTGTTCAAGCGCCATCTAC	0.905 RPM ratio (pull-down/input)
GATGATTGTTCTCCCAGCTGATGAATTCATACAATCGAGTAAACAAATTTTCCTAATCTTTCTGTTCAAGCGCCATCTAC	1.26 RPM ratio (pull-down/input)
GATGATTGTTCTCCCAGCTGATGAATTCTTCTGGTCGAGTAAACAAATTTTCCTAATCTTTCTGTTCAAGCGCCATCTAC	0.855 RPM ratio (pull-down/input)
GATGATTGTTCTCCCAGCTGATGAATTATCCAGTTCGAGTAAACAAATTTTCCTAATCTTTCTGTTCAAGCGCCATCTAC	0.843 RPM ratio (pull-down/input)
GATGATTGTTCTCCCAGCTGATGAATTCTACGGTTCGAGTAAACAAATTTTCCTAATCTTTCTGTTCAAGCGCCATCTAC	0.799 RPM ratio (pull-down/input)
GATGATTGTTCTCCCAGCTGATGAATTACTCCGGTCGAGTAAACAAATTTTCCTAATCTTTCTGTTCAAGCGCCATCTAC	0.841 RPM ratio (pull-down/input)
GATGATTGTTCTCCCAGCTGATGAATTGCGGGAATCGAGTAAACAAATTTTCCTAATCTTTCTGTTCAAGCGCCATCTAC	1.12 RPM ratio (pull-down/input)
GATGATTGTTCTCCCAGCTGATGAATTCCCTTCCTCGAGTAAACAAATTTTCCTAATCTTTCTGTTCAAGCGCCATCTAC	0.831 RPM ratio (pull-down/input)
GATGATTGTTCTCCCAGCTGATGAATTAAGTGAATCGAGTAAACAAATTTTCCTAATCTTTCTGTTCAAGCGCCATCTAC	1 RPM ratio (pull-down/input)
GATGATTGTTCTCCCAGCTGATGAATTCACATCTTCGAGTAAACAAATTTTCCTAATCTTTCTGTTCAAGCGCCATCTAC	0.854 RPM ratio (pull-down/input)
GATGATTGTTCTCCCAGCTGATGAATTGCGCCTTTCGAGTAAACAAATTTTCCTAATCTTTCTGTTCAAGCGCCATCTAC	1.13 RPM ratio (pull-down/input)
GATGATTGTTCTCCCAGCTGATGAATTTGCGTGATCGAGTAAACAAATTTTCCTAATCTTTCTGTTCAAGCGCCATCTAC	1.08 RPM ratio (pull-down/input)
GATGATTGTTCTCCCAGCTGATGAATTGACTACTTCGAGTAAACAAATTTTCCTAATCTTTCTGTTCAAGCGCCATCTAC	1.04 RPM ratio (pull-down/input)
GATGATTGTTCTCCCAGCTGATGAATTCAATATGTCGAGTAAACAAATTTTCCTAATCTTTCTGTTCAAGCGCCATCTAC	1 RPM ratio (pull-down/input)
GATGATTGTTCTCCCAGCTGATGAATTAAGATTATCGAGTAAACAAATTTTCCTAATCTTTCTGTTCAAGCGCCATCTAC	0.971 RPM ratio (pull-down/input)

Sequence	binding signal
GATGATTGTTCTCCCAGCTGATGAATTCCGTAAATCGAGTAAACAAATTTTCCTAATCTTTCTGTTCAAGCGCCATCTAC	1.2 RPM ratio (pull-down/input)
GATGATTGTTCTCCCAGCTGATGAATTTAACGGTTCGAGTAAACAAATTTTCCTAATCTTTCTGTTCAAGCGCCATCTAC	0.925 RPM ratio (pull-down/input)
GATGATTGTTCTCCCAGCTGATGAATTGATGCATTCGAGTAAACAAATTTTCCTAATCTTTCTGTTCAAGCGCCATCTAC	1.74 RPM ratio (pull-down/input)
GATGATTGTTCTCCCAGCTGATGAATTTAGAGTATCGAGTAAACAAATTTTCCTAATCTTTCTGTTCAAGCGCCATCTAC	1.02 RPM ratio (pull-down/input)
GATGATTGTTCTCCCAGCTGATGAATTACCTTTGTCGAGTAAACAAATTTTCCTAATCTTTCTGTTCAAGCGCCATCTAC	0.991 RPM ratio (pull-down/input)
GATGATTGTTCTCCCAGCTGATGAATTGGAGACCTCGAGTAAACAAATTTTCCTAATCTTTCTGTTCAAGCGCCATCTAC	0.734 RPM ratio (pull-down/input)
GATGATTGTTCTCCCAGCTGATGAATTGTTTCAGTCGAGTAAACAAATTTTCCTAATCTTTCTGTTCAAGCGCCATCTAC	1.18 RPM ratio (pull-down/input)
GATGATTGTTCTCCCAGCTGATGAATTATCAGTTTCGAGTAAACAAATTTTCCTAATCTTTCTGTTCAAGCGCCATCTAC	0.957 RPM ratio (pull-down/input)
GATGATTGTTCTCCCAGCTGATGAATTGTAACCATCGAGTAAACAAATTTTCCTAATCTTTCTGTTCAAGCGCCATCTAC	1.14 RPM ratio (pull-down/input)
GATGATTGTTCTCCCAGCTGATGAATTGACCTAGTCGAGTAAACAAATTTTCCTAATCTTTCTGTTCAAGCGCCATCTAC	0.889 RPM ratio (pull-down/input)
GATGATTGTTCTCCCAGCTGATGAATTAGAAAGTTCGAGTAAACAAATTTTCCTAATCTTTCTGTTCAAGCGCCATCTAC	0.938 RPM ratio (pull-down/input)
GATGATTGTTCTCCCAGCTGATGAATTACGAAATTCGAGTAAACAAATTTTCCTAATCTTTCTGTTCAAGCGCCATCTAC	1.05 RPM ratio (pull-down/input)
GATGATTGTTCTCCCAGCTGATGAATTATAGCCGTCGAGTAAACAAATTTTCCTAATCTTTCTGTTCAAGCGCCATCTAC	0.907 RPM ratio (pull-down/input)
GATGATTGTTCTCCCAGCTGATGAATTGGAATCCTCGAGTAAACAAATTTTCCTAATCTTTCTGTTCAAGCGCCATCTAC	0.79 RPM ratio (pull-down/input)
GATGATTGTTCTCCCAGCTGATGAATTCAAGTCATCGAGTAAACAAATTTTCCTAATCTTTCTGTTCAAGCGCCATCTAC	0.923 RPM ratio (pull-down/input)
GATGATTGTTCTCCCAGCTGATGAATTTGCGAGATCGAGTAAACAAATTTTCCTAATCTTTCTGTTCAAGCGCCATCTAC	0.953 RPM ratio (pull-down/input)
GATGATTGTTCTCCCAGCTGATGAATTAGCGCACTCGAGTAAACAAATTTTCCTAATCTTTCTGTTCAAGCGCCATCTAC	0.88 RPM ratio (pull-down/input)
GATGATTGTTCTCCCAGCTGATGAATTGCACGATTCGAGTAAACAAATTTTCCTAATCTTTCTGTTCAAGCGCCATCTAC	1.12 RPM ratio (pull-down/input)
GATGATTGTTCTCCCAGCTGATGAATTCATCTAGTCGAGTAAACAAATTTTCCTAATCTTTCTGTTCAAGCGCCATCTAC	0.92 RPM ratio (pull-down/input)
GATGATTGTTCTCCCAGCTGATGAATTCCCCGGTTCGAGTAAACAAATTTTCCTAATCTTTCTGTTCAAGCGCCATCTAC	0.786 RPM ratio (pull-down/input)
GATGATTGTTCTCCCAGCTGATGAATTAGCTATATCGAGTAAACAAATTTTCCTAATCTTTCTGTTCAAGCGCCATCTAC	1.01 RPM ratio (pull-down/input)
